Test results taken from the BET-seq Pho4 binding data (Le et al. 2018).
The list shows a part of the results. Values were computed here from the reads of four pooled replicates and scatter widely.

molecular target: T1, Pho4 (S. cerevisiae) (UniProt P07270); experiment: relative binding free energy (BET-seq); higher = weaker binding; settings: reference: library average
T1 sequence: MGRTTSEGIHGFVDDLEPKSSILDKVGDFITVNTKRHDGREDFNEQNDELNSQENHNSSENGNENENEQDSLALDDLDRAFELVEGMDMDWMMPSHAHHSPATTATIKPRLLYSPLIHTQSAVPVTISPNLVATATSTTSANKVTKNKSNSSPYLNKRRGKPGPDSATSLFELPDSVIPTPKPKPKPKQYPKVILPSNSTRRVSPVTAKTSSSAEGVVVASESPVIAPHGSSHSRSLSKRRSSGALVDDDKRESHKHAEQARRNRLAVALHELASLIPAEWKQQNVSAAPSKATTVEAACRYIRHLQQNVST

Sequence	relative binding free energy
TAAGTCACGTGGGCGC	-0.03 kcal/mol
CGTGTCACGTGGAATG	0.18 kcal/mol
TTTAACACGTGTTTTG	-0.06 kcal/mol
GTTAACACGTGTGGAG	0.15 kcal/mol
ACGATCACGTGAGGTG	0.27 kcal/mol
GGGTGCACGTGTTATG	-0.01 kcal/mol
TGGTTCACGTGCATGT	0.36 kcal/mol
CAGTGCACGTGGTAGG	-0.16 kcal/mol
ATTGTCACGTGACAGT	0.2 kcal/mol
TTTTACACGTGAGAAG	0.34 kcal/mol
TTTATCACGTGCGCAG	0.13 kcal/mol
TTGGTCACGTGGCTCT	-0.06 kcal/mol
AGATCCACGTGGTGGG	0.01 kcal/mol
TAGAGCACGTGGGTTT	-0.08 kcal/mol
TGGTTCACGTGCATCT	0.28 kcal/mol
TGCGTCACGTGGTAGT	-0.04 kcal/mol
GTTTTCACGTGAGCGT	0.27 kcal/mol
CATGGCACGTGAGTGT	0.13 kcal/mol
ATATGCACGTGAGTTG	0.19 kcal/mol
GGAAGCACGTGGAGAG	0.02 kcal/mol
GTATCCACGTGATTTT	0.29 kcal/mol
TGAGGCACGTGCTTTT	-0.16 kcal/mol
GGGTGCACGTGAGTTC	0.27 kcal/mol
AATTTCACGTGCTGGT	0.13 kcal/mol
GAAGGCACGTGGGGCA	-0.24 kcal/mol

Sequence	relative binding free energy
TTATGCACGTGTACGA	0.03 kcal/mol
ATGTCCACGTGTAGTG	-0.02 kcal/mol
GAGGACACGTGGGCTG	0 kcal/mol
GGGGTCACGTGTATTC	0.32 kcal/mol
TTTTGCACGTGGAGCC	0.18 kcal/mol
AAGGCCACGTGCTGGG	-0.18 kcal/mol
AGGGGCACGTGCTTTT	-0.18 kcal/mol
ATATTCACGTGTTTAG	0.22 kcal/mol
TTTAACACGTGTACGG	0.09 kcal/mol
ACATTCACGTGTGAGT	0.31 kcal/mol
GGTTGCACGTGCCAGT	0.02 kcal/mol
TGGTTCACGTGTCGGA	0.33 kcal/mol
CAGGGCACGTGGTAAA	-0.05 kcal/mol
AAGTTCACGTGATAGG	0.24 kcal/mol
GTTGTCACGTGTCATA	0.07 kcal/mol
GGGCGCACGTGCGTGG	-0.16 kcal/mol
TTATTCACGTGTCAAG	0.26 kcal/mol
TAAGGCACGTGAGGCG	0.08 kcal/mol
TGTTTCACGTGCGTAG	0.28 kcal/mol
TTGATCACGTGTGTTT	0.24 kcal/mol
TATCGCACGTGTTGGC	0.12 kcal/mol
GGAGGCACGTGAGTTT	0.2 kcal/mol
ATTTGCACGTGTAGAG	0.1 kcal/mol
TTGTACACGTGTCGTT	0.14 kcal/mol
CGTGCCACGTGTGTGA	-0.02 kcal/mol

Sequence	relative binding free energy
TTGGACACGTGCCGGT	-0.01 kcal/mol
AGAAGCACGTGTGGCG	-0.02 kcal/mol
AATGGCACGTGCGTTA	-0.17 kcal/mol
AAGTTCACGTGGGGTA	0.09 kcal/mol
TGTTCCACGTGGTTCT	-0.1 kcal/mol
GGGGGCACGTGCTATT	-0.26 kcal/mol
GATCGCACGTGATGTG	0.23 kcal/mol
TGGGCCACGTGAGGGC	0.05 kcal/mol
GGGGGCACGTGACAGA	0.05 kcal/mol
CAGGGCACGTGGAGTG	-0.04 kcal/mol
GGTCACACGTGGTTGG	0.17 kcal/mol
AGTGTCACGTGTCGTC	0.12 kcal/mol
GAGTACACGTGAGGTG	0.24 kcal/mol
CTGTTCACGTGTAAAG	0.28 kcal/mol
GAGATCACGTGATTGT	0.3 kcal/mol
TGTATCACGTGGCGGT	0.09 kcal/mol
CGATTCACGTGGGGCT	0.07 kcal/mol
TAATTCACGTGTGAGA	0.36 kcal/mol
GGAAACACGTGTGGCT	0.2 kcal/mol
GCTGGCACGTGGTAGT	-0.11 kcal/mol
ATGGGCACGTGTCGTC	-0.12 kcal/mol
GCTAGCACGTGTAAGT	0.18 kcal/mol
CTAAGCACGTGTGTAG	-0.1 kcal/mol
